The supplement of paper PMC10126150
Sequences with one replicate were seen in a single cluster, so their values are uncertain.

System: ATP
Experiment: switch fluorescence ratio, 500 uM ATP over buffer (Cy3 cluster intensity, sum of 5 cycles each) (fold (ratio)); higher = stronger signal-on switching upon ATP binding; sequences stand for … in TCGTCGGCAGCGTCAGATGTGTATAAGAGACAGTTTTTTTTTTTTTTTTTTTTTTTTT…TC
Details: aptamer strand: ATP DNA aptamer (quencher-CACCTGGGGGAGTATTGCGGAGGAAGG + anchor), 100 nM annealed; ATP concentration: 500 uM; one replicate
Outline: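 Cy3-labelled switching-strand clusters on a modified Illumina MiSeq flow-cell were annealed to 100 nM quencher-labelled ATP aptamer and imaged first in selection buffer, then after 15 min with 500 uM ATP at 22 °C. NaOH stripping and re-annealing separated each of five buffer/ATP cycles, and clusters outside 100-1000 RFU were excluded. The fluorescence ratio sums target-cycle Cy3 intensity over buffer-cycle Cy3 intensity per cluster and averages it per switch-domain sequence.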
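Also: ATP exposure 15 min at 22 °C before imaging.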

Sequence | switch fluorescence ratio
CAGTTTGCTC | 1.03
AATTCGGAGA | 1.01
TTTCGGGTC | 1.06
GTATGATCAG | 1
TTGGAGTAG | 1.24
TGTTTCCGAG | 1.09
TATGGTCGTA | 1.06
CCAAAGAGCC | 1.07
GTGGGCACCT | 1
GCCCTAGAAT | 0.995
CGGCGAAGAA | 1.02
AGAGGACGGA | 1.01
TTAGCACGC | 1.09
TTGACGTTAT | 1.26
TAGACGACAG | 0.897
ACCCCTAGTC | 1.09
ACGGGTAGCT | 1.02
GTACTTTCTT | 0.983
GCGCTTCAAT | 1.03
GGAGAAAATT | 0.98
TTTCAGCACT | 1.06
TCGGAATAT | 1.16
TAATTTTGG | 1.03
AGGCATTGAA | 0.996
AGGAAAACGC | 1.06
GGTACACTGT | 1

Sequence | switch fluorescence ratio
TATTATAGGC | 1
CGCCAAAGAA | 0.984
GCCCAAATAT | 0.999
CGATGAGATA | 1.04
CGTGGCCGAC | 0.941
TGGAAGACCC | 1.02
TTGGACGACT | 1.01
CCCGGCGGAT | 1.06
CATACGTAC | 1.71
AACTAGCCGA | 1.05
TTAAGTATAG | 1.04
TATACA | 0.976
AACAGATA | 1
ATCAGTCGCC | 0.995
CGGCTAATGG | 0.989
CAATTAATAA | 0.98
GAAGGTGGGT | 0.981
CCAGAGAGTG | 1.01
TGTAGCTCGA | 0.995
TGCATGTGTA | 1.05
AGGCTGCA | 0.994
AAGCTAAGTA | 0.997
CAGCACTTAA | 1.05
AAAAGACTTT | 1.02
AACTTGATA | 1.02
CAAAATTCTG | 1.03

Sequence | switch fluorescence ratio
GCCAGGAACT | 1.01
GGTAACGCT | 1.03
TAGTATATGT | 1.01
TGTGTTTG | 0.996
CGCGTAAGGG | 1.03
ACCTCGCTC | 1.5
AACGGGAAGT | 1.01
ACGGGCATCC | 0.983
TAGTCGGATC | 0.949
GCCCTTACCT | 1.17
AGTCTCCCAC | 1.1
TCTGCAAAAA | 2.34
TTCCGTTGCC | 1.88
GCATCATTAG | 1.03
ACCAGACGAG | 1.02
CCGACTCAAC | 3.23
GTTCCCATGA | 1.04
GTAAAAAGCA | 0.992
CTCAATAGCT | 1.06
AAGTGTGTAC | 0.986
AATATGCTGG | 0.998
GAAGCGTCTC | 1.11
AAGCGAATTC | 1.14
CTATTAAACG | 1.02
GCGTGACAG | 1.01
CAACTTTTGT | 1.01

Sequence | switch fluorescence ratio
TCGATGACGT | 1.02
GTGAATAGTA | 0.971
TAGTGCGAGG | 1.01
ATGGCTCTTA | 0.974
AAAGCGGTGA | 1.02
TTGGTGCTA | 1
CTTTAATGTG | 0.99
GGCAGGTGAG | 1.21
CGCAGACAAC | 1.61
CATTGTTCTT | 0.965
ATTAATGCAA | 1.07
CGTCTTGCAA | 3.2
GAGAGTACCG | 1.02
GGGCATAG | 1.25
GCCTTGGTTG | 1.02
TTATATATT | 1.02
CATGTTCATC | 0.962
AGTGGATGAC | 1.04
TCGGAGCCCG | 1.06
GGCTTAACAT | 0.979
GATTTTGATT | 1
CCGCTATGTT | 3.35
GGAGTTGA | 1.02
AACTATAGTA | 1.02
CGCACCGTCA | 1.04
ACAAATGTCG | 0.943

Sequence | switch fluorescence ratio
ACCCAGCCTG | 1.04
GTCCCATGCT | 1.02
ATGTGGACCA | 1
CACCAGGCGT | 3.01
ATGCAGTCAC | 0.99
TGCGGGGAAG | 1.02
AGACAGTGCA | 1.03
TCGATCTTTG | 0.955
TGTTTTAAGA | 0.972
ACTAGAGGGC | 1.03
AGTGTACCAG | 1.02
GGTTACAGCG | 0.992
GGCTGCGTAC | 1.63
GAGTACCAGT | 1.02
ATGTGATGAC | 1.05
CTAGCTCCGC | 1.17
CCCGGGGGTA | 0.95
TTTTAATACA | 0.981
TTTGACCTGC | 1.05
TCTTGCAGAC | 2.3
TTTCGGAGGT | 1.03
GACGGGGGAC | 1.53
ATGTATGCGT | 1
GCCGTTTTT | 1
AGCCAATAGG | 0.994
GGGATGTAA | 1.02

Sequence | switch fluorescence ratio
ACGTCCCTGT | 1.01
TGAAGTTTGA | 1.02
AAGGTATCAA | 1.05
GATCCTACTT | 1.05
TAGGTATAA | 0.99
TCCGTAGTTC | 4.4
GACTGAGGCT | 1.01
GATTTGGATC | 0.955
GGACTATGTA | 1.02
CATTAGACC | 1.02
GGCACCGGCA | 1.03
TAGGGAGTTG | 0.983
TGAGGAGAGT | 0.973
TTATAGGTAA | 0.994
GAACTATTGA | 1.01
TCGGGAAACC | 1.04
CAGGCTATCT | 0.991
CAGTTGGCT | 0.997
CCGGTACCCG | 1.06
CGTGATAGGC | 1.08
CGGCAGGTTG | 1.01
GTGGCGACTC | 0.98
ATCCTAAGTT | 1.01
ATGTGGCACC | 1.04
AATCGTGGA | 0.975
ATCGGCCCAG | 0.963

Sequence | switch fluorescence ratio
GACTGCACTA | 1.52
CATGTAGTTT | 0.975
TCCCCCTTT | 1.08
TTGGTGGGG | 0.991
ACTTCTTTTC | 1.01
CCGGTGGAAA | 1.05
TTTAATTATC | 0.996
TTTTGACACC | 0.981
CATGGGCGTG | 0.988
GATTCGGTAG | 0.971
GAGAACCGTA | 1.05
GTGTGCTGCG | 1
TATGTCTGCT | 0.995
ACATTGGTGC | 1.12
GAGGTAGTTT | 0.973
ACTTCAACCT | 1.09
TGACTAGGAC | 1.1
TAGGAGCTGC | 1.23
CACATCGGGT | 0.992
GTTCTGTCC | 0.988
GCAATACAGG | 5.4
CCCGCGGGAA | 1.04
CGGAGTGCAT | 1.05
GTATTCGCTC | 1.05
TTCCAAAATA | 0.999
GGCCAGAGGC | 0.978

Sequence | switch fluorescence ratio
CTTCGGATGG | 0.983
GAAACAGGGC | 1.01
AGAATCCGCA | 3.26
GGAAGCGTGT | 0.96
CTTTGAGCCG | 0.981
AGCCGGATAC | 1.43
AAAGAATATC | 1.04
ACTGCGTTTT | 0.972
CTTGTATAAC | 1.02
CCCTCAGGGG | 1.24
CAGGCATGTC | 1.05
CAAGCAAAAG | 1.51
TTATTGCCGC | 1
GTATGAGCT | 0.976
TACATCTCTT | 0.977
ATGGCTTCGG | 0.975
TTTAAGGTAA | 0.96
TTCATAGGGA | 0.944
GGCAACCAGG | 2.02
